Reference: PubChem BioAssay AID1030 (National Center for Advancing Translational Sciences (NCATS), 2008)
Out of some 220,000 compounds screened, about 16,000 (7.3%) were called active. The inconclusive results got no clear call from the source; some entries with a clear call stand among them for comparison. The call rests on the fitted dose curve; in most records, active means well fitted inhibition curve with a large enough effect (not every such curve was filed as active); inconclusive means small, poorly fitted or top-dose-only effect, or another doubt; inactive means no such curve, though single readings can be large or run the other way. No potency is given beside an inconclusive call; the fits are too rough.

Target: Aldehyde dehydrogenase 1A1 (Homo sapiens) (UniProt P00352)
Sequence of UniProt P00352 (P00352 whole entry, looked up): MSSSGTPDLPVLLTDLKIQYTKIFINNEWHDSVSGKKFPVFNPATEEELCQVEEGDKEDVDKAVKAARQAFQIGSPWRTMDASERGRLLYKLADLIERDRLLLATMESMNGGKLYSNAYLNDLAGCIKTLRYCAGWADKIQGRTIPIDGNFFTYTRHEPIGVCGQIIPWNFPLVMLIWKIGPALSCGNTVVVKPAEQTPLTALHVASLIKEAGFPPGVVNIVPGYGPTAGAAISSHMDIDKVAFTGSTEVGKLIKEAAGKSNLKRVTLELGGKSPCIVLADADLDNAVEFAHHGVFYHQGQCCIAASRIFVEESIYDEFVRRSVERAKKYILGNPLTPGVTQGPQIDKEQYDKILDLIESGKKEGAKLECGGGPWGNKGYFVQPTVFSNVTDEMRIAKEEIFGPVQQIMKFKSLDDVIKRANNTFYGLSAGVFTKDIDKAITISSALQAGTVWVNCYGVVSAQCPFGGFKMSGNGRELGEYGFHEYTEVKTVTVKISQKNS
Experiment: qHTS Assay for Inhibitors of Aldehyde Dehydrogenase 1 (ALDH1A1);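 on activity, negative = inhibition: plate controls were no enzyme wells and a reference inhibitor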
Conditions: Purified ALDH1A1, NADH fluorescence, propionaldehyde substrate; series mostly up to 75.3 µM
Potency means the concentration at half of the fitted maximal effect; tags describe the fitted curve by direction and shape.

Compound | Potency | activity, negative = inhibition
CC(C)(C)c1ccc(OC(=O)c2cccnc2)cc1 | inconclusive [inhibitor, single point] | –
O=C(CSc1ccc(Cl)cc1)Nc1cc(-c2nc3ncccc3o2)ccc1Cl | inconclusive [inhibitor, single point] | –
COc1ccc(Cn2c(-c3ccc(C)cc3)c[n+]3ccccc23)cc1 | inactive | –
CCn1cc(C(=O)NCc2ccc3c(c2)OCO3)c(=O)c2cc(S(=O)(=O)N3CCOCC3)ccc21 | inconclusive [inhibitor, single point] | –
CCOC(=O)C(C)(C)N(Cc1cccc(C)c1)S(=O)(=O)c1cccc([N+](=O)[O-])c1 | active: 17.8 µM | –
O[C@@H](c1cc(-c2ccccc2)nc2c1ccc1ccccc12)C1CCCCN1 (some centres undefined) | – | inactive: 0.105% [at 13.5 µM]
CCCC(C(=O)NCC1CCCO1)N(Cc1ccco1)C(=O)CNS(=O)(=O)c1ccccc1 (centres undefined) | active: 11.2 µM | –
O=C(Nc1cccc2ncccc12)c1ccc(-c2ccc(Cl)cc2Cl)o1 | inactive | –
Cn1cc(C(=O)NC2CCCCC2)c(=O)c2cc(S(=O)(=O)N3CCCC3)ccc21 | inconclusive [inhibitor, full curve] | –
COc1cc(CC(=O)OCC(=O)Nc2ccc3c(c2)OCO3)cc(OC)c1OC | inactive | –
CCOP(=O)(OCC)C(NC(=O)Nc1ccc(Cl)cc1)C(=O)N(CC)CC (centres undefined) | inactive | –
CN(C)c1ccc(C(C(=O)NC(C)(C)C)N(C(=O)c2csnn2)C2CC2)cc1 (centres undefined) | active: 5.62 µM | –
COc1ccc(C(=O)C2CCCN(C(=O)c3ccccc3C(C)=O)C2)cc1F (centres undefined) | inconclusive [inhibitor, partial curve, poor fit] | –
O=C1c2c(O)ccc(O)c2C(=O)c2c(NCCNCCO)ccc(NCCNCCO)c21 | inconclusive [inhibitor, single point] | –
CCc1cc2c(NC(Cc3c[nH]c4ccccc34)C(=O)O)nc(C)nc2s1 (centres undefined) | inconclusive [inhibitor, single point] | –
CCc1nc(SCC(=O)c2ccc(C)c(C)c2)n[nH]1 | inconclusive [inhibitor, single point] | –
COc1ccc(N2C(=O)C3CCCN3C2c2cccc(OC)c2OC)cc1 (centres undefined) | inconclusive [inhibitor, single point] | –
O=C(Nc1ccc(NC(=O)C2CC2)nc1)c1ccccn1 | inconclusive [inhibitor, single point] | –
O=C(CSc1nnc(Cc2ccc3c(c2)OCO3)n1C1CCCCC1)NC1CCCC1 | inconclusive [inhibitor, single point] | –
Cc1sc(NC(=O)c2ccccc2)c(C(=O)c2ccccc2)c1C | active: 5.01 µM | –
Cc1ccc(OCCn2cnc3cc([N+](=O)[O-])ccc3c2=O)cc1 | inactive | –
CN(C)C1C(=O)C(C(N)=O)C(=O)C2(O)C(=O)C3C(=O)c4c(O)ccc(Cl)c4C(O)C3CC12 (centres undefined) | inactive | –

Compound | Potency | activity, negative = inhibition
CC1CCc2c(sc(NC(=O)c3ccc(Cn4cc(Br)cn4)o3)c2C(N)=O)C1 (centres undefined) | inconclusive [inhibitor, single point] | –
CCOC(=O)c1[nH]c2ccc(OCC)cc2c1CCCN1C(=O)c2ccccc2C1=O | inconclusive [inhibitor, single point] | –
CC(=O)c1cnc(-c2ccccn2)s1 | inconclusive [inhibitor, single point] | –
COc1cc(NC(=O)c2cccs2)c(C(=O)OCC(=O)c2cc(C)n(-c3ccc(F)cc3)c2C)cc1OC | inconclusive [inhibitor, partial curve] | –
NC(=O)COC(=O)c1ccc2c(c1)S(=O)(=O)N=C1CCCCCN12 | active: 8.91 µM | –
COc1ccc(CNc2nc3c(c(=O)n(Cc4ccc(F)cc4)c(=O)n3C)n2C)cc1 | inconclusive [inhibitor, single point] | –
CC1(C)CC(=O)C2=C(C1)OC(N)=C(C#N)C2c1ccc(OC(=O)N2CCOCC2)cc1 (centres undefined) | active: 3.16 µM | –
CCOC(=O)c1c(C)nc2c(c1-c1ccc(OC)cc1)C(=O)CC(C)(C)C2 | inconclusive [inhibitor, single point] | –
Cc1cc(Cl)c(S(=O)(=O)Nc2ccc3c(c2)OCO3)cc1OCC(=O)NC1CCCCC1 | inconclusive [inhibitor, partial curve] | –
COCCn1c(=O)c(-c2ccccc2)nc2cnc(N3CCNCC3)nc21 | inconclusive [inhibitor, partial curve] | –
CN(C(=O)COC(=O)CNC(=O)C12CC3CC(CC(C3)C1)C2)C1CCS(=O)(=O)C1 (centres undefined) | inactive | –
Cc1c(N/C=C/C(=O)c2cccs2)c(=O)n(-c2ccccc2)n1C | inconclusive [inhibitor, partial curve] | –
N#Cc1cccc(NC(=O)N2CCC3(CC2)CCN(C(=O)c2csnn2)CC3)c1 | inconclusive [inhibitor, single point] | –
O=C1SC(SCc2ccccc2)=N/C1=C\c1ccc(C(=O)O)cc1 | inconclusive [inhibitor, single point] | –
CC(NC(=O)c1cc2sccc2n1C)c1ccc2c(c1)OCCO2 (centres undefined) | inconclusive [inhibitor, partial curve] | –
NC(=O)c1c(NC(=O)c2ccccc2)sc2c1CCc1ccccc1-2 | inconclusive [inhibitor, single point] | –
C=CCOc1cccc(C2C(C(=O)c3ccco3)=C(O)C(=O)N2CCN2CCOCC2)c1 (centres undefined) | active: 25.1 µM | –
COC(=O)/C=C1/S/C(=N/N=C/c2ccc(N(C)C)cc2)NC1=O | inactive | –
O=C(CN1C(=O)NC(Cc2ccccc2)C1=O)NC(=O)NC1CCCCC1 (centres undefined) | inconclusive [inhibitor, partial curve] | –
O=C(NCc1ccc2c(c1)OCO2)C(=O)NCC1CCCO1 (centres undefined) | inactive | –
Fc1ccc(NC(=S)NC2CCN(Cc3ccccc3)CC2)cc1 | active: 14.1 µM | –
CCCCc1ccc(NC(=O)CC(C)=O)cc1 | inactive | –
